This note sets out measurements from PMC10663837 (iScience, 2023).

This experiment concerns the target Human Hsp90β, purified (human, UniProt P08238). Put plainly: pull-down.

B1: PD-L1 endogenous in E0771 cells (natural protein)
chain: not shown
As to B1, the binding result is given as “binds”.
